B1: AV25-P5(PEG24)-VC-PAB-Exatecan DAR 8: ADC of AV25 (LALA) antibody conjugated to P5(PEG24)-VC-PAB-Exatecan at DAR8; TUB-040 presumably the same ADC (conjugate)
heavy: EVQLVQSGAEVVKPGASVKMSCKASGYTFTGYIIHWVKQAPGQGLEWIGAIYPGSGATSYKQKFRGRATLTADTSTSTVYMELSSLRSEDSAVYYCARGETARATFAYWGQGTLVTVSS[human IgG1 constant region with changes not shown]
light: DIQMTQSPSSLSASVGDRVTITCSASQDIGNFLNWYQQKPGKTVKVLIYYASSLYSGVPSRFSGSGSGTDYTLTISSLQPEDFATYYCQQYSKLPLTFGQGTKLELKRTVAAPSVFIFPPSDEQLKSGTASVVCLLNNFYPREAKVQWKVDNALQSGNSQESVTEQDSKDSTYSLSSTLTLSKADYEKHKVYACEVTHQGLSSPVTKSFNRGEC
B2: AV25 HC-wt: Fc-wildtype AV25 mAb, heavy chain SEQ ID NO: 61 (antibody)
heavy: EVQLVQSGAEVVKPGASVKMSCKASGYTFTGYIIHWVKQAPGQGLEWIGAIYPGSGATSYKQKFRGRATLTADTSTSTVYMELSSLRSEDSAVYYCARGETARATFAYWGQGTLVTVSS[human IgG1 constant region not shown]
light: B1 light
B3: AV25: humanized anti-NaPi2b IgG1 mAb clone, Fc-silenced (LALA); light chain SEQ ID NO: 6, heavy chain SEQ ID NO: 7 (antibody)
heavy: EVQLVQSGAEVVKPGASVKMSCKASGYTFTGYIIHWVKQAPGQGLEWIGAIYPGSGATSYKQKFRGRATLTADTSTSTVYMELSSLRSEDSAVYYCARGETARATFAYWGQGTLVTVSS[human IgG1 constant region with changes not shown]
light: B1 light
modifications: Heavy chain without a signal seqeunce; Light chain without a signal seqeunce

Legend:
[1] = 5, 3 and 1 mg/kg
Description: All animal experiments were conducted in accordance with German animal welfare law and approved by local authorities. […] Treatment was initiated when tumours reached a mean tumour volume of 0.1-0.15 cm^3. […] Tumour volumes, body weights and general health conditions were recorded throughout the whole study.

[2] = tested on: Lu7700 non-small cell lung cancer (NSCLC) model; test: Dose response PDX study (Lu7700); assay type: in vivo, NMRI nu/nu mice; details: once at day 0, 5, 3 or 1 mg/kg intravenous
[3] = tested on: OVCAR-3 and HCC-78 target cells; test: Calcein release-based ADCC assay with human NK cells; assay type: cell-based; details: 15 μg/ml, NK:target 4:1, 4 h
Description: and AV25-P5(PEG24)-VC-PAB-Exatecan DAR8 vs the isotypes and an anti-MHC-I positive control (Invivogen) was analyzed, which is mediated after interaction with FcγRIIIa (CD16). For the Calcein release-based antibody-dependent cellular cytotoxicity (ADCC) assay, peripheral blood mononuclear cells (PBMCs) were isolated from healthy donor buffy coats (purchased from DONAS GmbH) using LeucoSep tubes (Greiner Bio-One) and Histopaque®-1077 (density 1.077 g/ml, Merck) density gradient according to standard protocols. Afterwards, natural killer (NK) cells were MACS (magnetic cell separation)-sorted using human NK cell isolation kit (Miltenyi Biotec) by negative selection according to the manufacturer's instructions yielding untouched human primary NK cells. Napi2b-positive target cells OVCAR-3 and HCC-78 (both Napi2b^high) were stained with 16 μM Calcein AM (Thermo Fisher Scientific). 40.000 NK cells and 10.000 Calcein-stained target cells were incubated at a 4:1 ratio in the presence of 15 μg/ml antibodies or ADCs. Cells permeabilized with 2.5% Triton X 100 (Merck) served as a positive control for maximum Calcein release. After 4 h, supernatants were transferred to a flat black non-binding 96-well plate (Greiner Bio-One) and fluorescence was measured at 485/535 nM via the Infinite M200 Pro reader (Tecan). The percent specific killing was calculated by dividing the Calcein released by antibody-mediated killing minus background Calcein release (NKs+targets) from Calcein released by Triton X-permeabilized cells (maximum killing) minus background Calcein release (targets only). Graphs show means of n=2±SEM.

[4] = biological target: T1, HEK293 cells overexpressing Napi2b (SLC34A2) (Homo sapiens, UniProt O95436); test: Binding to human NaPi2b evaluated by flow cytometry; details: HEK293 cells transfected with Napi2a
T1 construct: human or rat full-length Napi2b-mCherry-(GGGS)3×-mCherry expression construct; expressed in transfected cells; host or cells: HEK293
T1 sequence (O95436 1-690): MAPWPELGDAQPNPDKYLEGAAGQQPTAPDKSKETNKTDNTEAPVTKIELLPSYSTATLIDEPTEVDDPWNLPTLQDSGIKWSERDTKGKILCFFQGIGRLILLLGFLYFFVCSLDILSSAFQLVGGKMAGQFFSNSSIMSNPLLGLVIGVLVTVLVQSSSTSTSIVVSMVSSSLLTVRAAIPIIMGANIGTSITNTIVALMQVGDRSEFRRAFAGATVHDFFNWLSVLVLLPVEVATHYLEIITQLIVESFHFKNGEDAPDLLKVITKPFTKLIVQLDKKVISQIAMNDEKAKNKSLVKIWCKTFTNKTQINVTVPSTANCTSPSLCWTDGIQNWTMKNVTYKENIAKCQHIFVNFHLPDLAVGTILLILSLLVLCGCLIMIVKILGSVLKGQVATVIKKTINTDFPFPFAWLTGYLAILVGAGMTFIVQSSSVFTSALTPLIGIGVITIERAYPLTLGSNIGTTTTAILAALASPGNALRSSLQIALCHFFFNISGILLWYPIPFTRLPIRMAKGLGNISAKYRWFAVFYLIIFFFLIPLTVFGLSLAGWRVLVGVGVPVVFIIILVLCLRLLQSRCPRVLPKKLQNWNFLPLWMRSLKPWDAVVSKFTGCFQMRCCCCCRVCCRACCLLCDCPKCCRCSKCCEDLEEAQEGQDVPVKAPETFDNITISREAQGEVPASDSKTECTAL
Description: To determine concentration-dependent binding, HEK293 cells transiently or stably expressing human Napi2a-, Napi2b- and Napi2c-mCherry were incubated with antibodies or ADCs in concentrations ranging from 0.002 to 200 nM, stained with an Alexa-dye-labeled anti-human IgG H+L secondary antibody (Thermo Fisher Scientific), and analyzed by flow cytometry. Mean fluorescence intensity (MFI) ratios were normalized to the non-specific binding control. The assay was performed in duplicates and data points were analyzed by a non-linear regression using a one-site specific binding model using Prism 9 software.

[5] = 10 and 20 mg/kg intravenous
OVCAR-3 cells [6] = test: In vivo efficacy in a cell line derived xenograft model (CDX); parameters: species or system CB17-Scid mice; details: single dose 1 mg/kg
Description: In brief, 1×10^7 OVCAR-3 cells (100 μL+100 μL Matrigel) were subcutaneously injected to CB17-Scid mice.

HCC-78 cells = test: DNA damage and apoptosis markers by flow cytometry (HCC-78); assay type: cell-based; details: 0.05-12 μg/ml, 72 h
Description: (§1) Topoisomerase-I inhibition by delivery of exatecan via the AV25-P5(PEG24)-VC-PAB-Exatecan DAR8 ADC induces DNA damage as detected by the accumulation of cleaved PARP, active caspase 3 and phosphorylated histon 2AX (pH2AX). OVCAR-3 and HCC-78 cells (both Napi2b^high) were treated with increasing concentrations (0.05-12 μg/ml) of AV25-P5(PEG24)-VC-PAB-Exatecan or an Isotype control (isotype-P5(PEG24)-VC-PAB-Exatecan for 72 h. Cells were stained with live/dead stain (Thermo Fisher Scientific) and after fixation and permeabilization using the Fixation/Permeabilization kit (BD Biosciences) for the DNA damage markers active caspase 3, cleaved PARP and pH2AX (Ser-139) (all BD Biosciences) and analyzed by flow cytometry. Graphs show means of n=2±SEM.

[7] = tested on: patient derived tumor models (lung, endometrial and ovarian cancer); test: In vivo efficacy in patient derived xenograft models (PDX), 10 mg/kg; parameters: species or system NMRI nu/nu mice; details: 10 mg/kg once at day 0, intravenous
OVCAR-3 cells [8] = test: DNA damage and apoptosis markers by flow cytometry (OVCAR-3); assay type: cell-based; details: 0.05-12 μg/ml, 72 h
Description: as §1

Molecule | exposure profiles [1] | in vivo stability of the ADC (total vs intact ADC) [1] | efficacy compared to the vehicle control [2] | ADCC activity in human NK cells [3] | specificity of binding among Napi2a, Napi2b and Napi2c [4] | PK exposure profile [5] | tumor relapse until the end of the observation period (OVCAR-3 cells [6]) | accumulation of DNA damage (cleaved PARP-, active caspase 3- and pH2AX-positive cells) (HCC-78 cells) | efficacy compared to the vehicle control [7] | accumulation of DNA damage (cleaved PARP-, active caspase 3- and pH2AX-positive cells) (OVCAR-3 cells [8])
B1 | dose proportional exposure profiles | high stability | highest and long-lasting efficacy | did not induce ADCC or only in very low amounts | bind specifically to NaPi2b | good exposure profile, without enhanced in vivo clearance | does not show any tumor relapse | concentration-dependent accumulation of DNA damage | very high and long-lasting efficacy | concentration-dependent accumulation of DNA damage
B2 |  |  |  | triggered high ADCC activity |  |  |  |  |  | 
B3 |  |  |  | did not induce ADCC or only in very low amounts | bind specifically to NaPi2b |  |  |  |  | 

Source: patent US20240190958A1, “NOVEL ANTIBODY DRUG CONJUGATES WITH NOVEL NAPI2B ANTIBODIES, THERAPEUTIC METHODS AND USES THEREOF” (Tubulis GmbH, priority 2022, published 2024)
